# The full ranking holds about 33,000 sequences; the median of “E-score (-0.5 to 0.5)” is about -0.035, and the highest 2% start at about 0.34. Some of the results follow.
# Target: T1, Mot3 (UniProt P54785)
# T1 sequence: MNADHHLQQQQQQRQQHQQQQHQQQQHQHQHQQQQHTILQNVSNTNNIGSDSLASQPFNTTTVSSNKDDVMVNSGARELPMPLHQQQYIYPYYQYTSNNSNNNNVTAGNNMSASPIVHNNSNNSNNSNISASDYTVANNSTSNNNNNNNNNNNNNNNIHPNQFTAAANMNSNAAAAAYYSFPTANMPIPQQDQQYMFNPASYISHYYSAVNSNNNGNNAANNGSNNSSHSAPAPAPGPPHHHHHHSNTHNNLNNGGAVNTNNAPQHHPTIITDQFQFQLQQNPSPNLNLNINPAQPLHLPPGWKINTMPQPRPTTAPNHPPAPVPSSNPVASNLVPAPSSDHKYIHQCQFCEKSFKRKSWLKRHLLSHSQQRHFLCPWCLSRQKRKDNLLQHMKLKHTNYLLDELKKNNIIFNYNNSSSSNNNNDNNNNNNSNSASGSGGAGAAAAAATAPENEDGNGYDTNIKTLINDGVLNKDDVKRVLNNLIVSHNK
# Test: PBM E-score (8-mer binding enrichment) (E-score (-0.5 to 0.5)); higher = stronger / more preferred TF binding; most listed sequences are background and not binding sites
# Settings: protein concentration: 200 nM; construct: GST-full length
# Outline: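 PURExpress in vitro transcription/translation supplied GST-tagged yeast transcription factors, either full-length or DNA-binding domain. Applied at about 100-200 nM to universal all-10-mer Agilent arrays double-stranded by primer extension, the bound protein was detected with fluorescent anti-GST. E-scores, modified Wilcoxon-Mann-Whitney statistics, were given by the Universal PBM Analysis Suite to ungapped eight-base words pooled with their reverse complements after masliner normalisation.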
row,Sequence,PBM E-score
1,CCTCTCTA,-0.195
2,GGCACGGA,0.397
3,GACGCTTA,-0.0493
4,CTCCATAC,-0.122
5,ACACTAGG,-0.00897
6,GGGTACAC,0.0896
7,AAAACCAC,0.0758
8,GCGCGTGA,0.0773
9,AACACCCC,-0.141
10,GCTTTGCA,-0.0184
11,CTGGCGCA,-0.218
12,CTTACGGC,-0.206
13,AAACCGGA,-0.134
14,CCGTCCTC,-0.274
15,AACCTTTA,0.0683
16,GACACAGC,0.118
17,CCCCCGCC,-0.304
18,AGAGTTAT,-0.184
19,GACGAGTA,0.0318
20,CTTTTAGA,-0.165
21,CCAAGTAA,0.178
22,GTGCCCAC,0.276
23,ATAACCTC,-0.0664
24,CAGTGTAG,0.154
25,ATAGTATG,0.0342

row,Sequence,PBM E-score
1,AGGGTGGA,-0.338
2,ACTTACGA,0.166
3,CCCTGGCA,-0.191
4,TAGGAGGA,-0.00925
5,ACCTCAAA,-0.0738
6,GGAACTAC,0.12
7,CGGGAAGC,-0.147
8,GAAAAACA,0.136
9,CACCCGCC,-0.0513
10,CGTCCAAC,0.0976
11,ACCGCGTG,0.0158
12,CTAGGCTC,0.043
13,ATATCAAC,-0.0202
14,ATATATAT,0.229
15,GCTCACAA,0.00514
16,ACCGGGTA,0.0313
17,CAGCATGA,-0.0674
18,AAATATCT,-0.0704
19,AAGACACA,0.0801
20,GTCCCGAA,-0.0546
21,AGAACGAG,-0.00842
22,TCCAGGCA,0.463
23,AACGCTAG,0.0348
24,CCATCATC,-0.226
25,ACGTCTCT,0.0141

row,Sequence,PBM E-score
1,CGATGTCA,0.0849
2,TAGCCCTA,-0.0815
3,ACTCGGTA,-0.027
4,AAGATCAG,-0.167
5,CGCGCAGC,-0.144
6,CTCTGATA,-0.208
7,CCTATTCG,-0.08
8,ACCGTCTA,-0.007
9,AACACGCT,0.335
10,AATCATAC,-0.0233
11,GAGCACGC,-0.0754
12,AAAGTCGA,-0.122
13,ACTCTAGC,-0.19
14,CTTTTCTC,-0.00155
15,CTGTGTCC,0.0926
16,CGACTATC,-0.188
17,ATAGAAAT,-0.0355
18,ATCCCCAA,0.065
19,TAATGAGA,0.0652
20,CCTGGTCC,-0.276
21,CAAGTCTA,0.053
22,TAGGGCGA,-0.123
23,CATACTTA,0.193
24,GGCTCTCA,-0.189
25,CCCTCCGA,-0.214

row,Sequence,PBM E-score
1,AATCTGAC,0.0237
2,AGTGATTA,0.0245
3,AAAACGCT,-0.027
4,AGGAATTC,-0.0434
5,ACCGTCCA,-0.304
6,CAACTATA,0.00989
7,TGAATTAA,0.181
8,CCTTCACC,0.168
9,AGATTGGG,-0.196
10,ACGGGGTG,-0.179
11,AAAATTTC,-0.00945
12,ACGTCAAT,-0.0649
13,CACCGCGA,-0.105
14,ATGCAGCA,-0.107
15,CAACGGTG,-0.174
16,TCTTATCA,0.259
17,CGATTTAC,0.0537
18,AATGTTTA,0.209
19,ATTACCCA,0.117
20,ACTAGGTC,-0.144
21,GATCGCCC,-0.0373
22,ACAAGCTA,0.187
23,CGACGGCC,-0.134
24,ACGAGCCG,-0.0112
25,CCACCATC,-0.265

row,Sequence,PBM E-score
1,CGCCCGAA,-0.164
2,AAACTCAG,0.0968
3,ATTCCATA,-0.0922
4,AAAAAAAG,0.0296
5,AAAACACA,0.272
6,CCTCGGCG,-0.0846
7,AACGGTCG,-0.0651
8,AAGTCGAC,0.152
9,AGGAGCCC,0.00792
10,TGGGCTAA,-0.197
11,AAATGCTC,-0.0582
12,CTTCTTAA,0.249
13,AGCAATTC,-0.0575
14,AGGGCGCG,0.0819
15,GATGAAAA,0.113
16,CTTCAACA,0.268
17,CCTCAGTC,-0.263
18,ACGTTGTC,0.0318
19,CGAGACAG,-0.00715
20,ATGAGTAG,0.00079
21,AAGCACGC,0.216
22,CATGAGCG,-0.167
23,GCCCTAGA,-0.256
24,GACCTATC,-0.0804
25,AATAAACT,-0.0556

row,Sequence,PBM E-score
1,GAAAGTTA,0.0912
2,AGTCGCAG,-0.268
3,TCCTACAA,0.279
4,GCCCCGTA,-0.246
5,CAACCCAA,0.0828
6,GGCCACTA,-0.141
7,TGCCCACA,0.175
8,GGTTGGAA,-0.221
9,ACCAGGCT,-0.06
10,ATGCACGC,0.0647
11,CGTACAAC,0.163
12,ATGGTCCG,-0.213
13,CCCCCCGA,-0.442
14,GTCCTGCA,-0.0442
15,ACATTTCG,0.0564
16,ATGCGGGC,-0.0621
17,CGGTGTTA,0.075
18,ACATCAGT,0.0368
19,CAAGAAAC,0.0824
20,ACCCTAGT,-0.0513
21,CGAAACAA,0.0406
22,ACCAAATG,-0.15
23,GTCATGAC,-0.0798
24,GCAATCCA,0.0284
25,GAAACTCA,-0.0953

row,Sequence,PBM E-score
1,AAGAGCGA,-0.284
2,CGTGGCCC,-0.283
3,AATCTCGA,0.018
4,CGGATAAG,-0.358
5,ACCATATA,0.124
6,GGGGTGCA,-0.134
7,CGACTGCG,-0.0889
8,ACTCGGAA,-0.192
9,CCCCAATC,-0.174
10,TATCGGCA,-0.0281
11,ACAACCGC,-0.0456
12,TTCAGCAA,0.0416
13,AATTTGAT,-0.133
14,CGTCGCTC,-0.219
15,ATTTCGAC,0.00058
16,GGGCCCAC,-0.255
17,ACCGCTCA,-0.122
18,GCAACAGC,0.0716
19,CGGGAGTA,-0.221
20,ATCAAAGC,-0.104
21,TCGGCCGA,-0.26
22,TAGCTACA,0.0558

# Source: the supplement of paper PMC3334620
